The record followed here is article PMC4336329 (PLoS ONE, 2015).

Hit rate of the full screen: of about 310,000 compounds, about 2,200 (0.71%) showed an effect of 50% or more. Effects have a minus sign here. Some of the results follow.

For this experiment, the target named is human ether-à-go-go-related gene (hERG) potassium channel (human, UniProt Q12809). Put plainly: primary screen, population patch clamp on CHO cells stably expressing hERG.
Chain of human ether-à-go-go-related gene (hERG) potassium channel (Q12809 whole entry, looked up): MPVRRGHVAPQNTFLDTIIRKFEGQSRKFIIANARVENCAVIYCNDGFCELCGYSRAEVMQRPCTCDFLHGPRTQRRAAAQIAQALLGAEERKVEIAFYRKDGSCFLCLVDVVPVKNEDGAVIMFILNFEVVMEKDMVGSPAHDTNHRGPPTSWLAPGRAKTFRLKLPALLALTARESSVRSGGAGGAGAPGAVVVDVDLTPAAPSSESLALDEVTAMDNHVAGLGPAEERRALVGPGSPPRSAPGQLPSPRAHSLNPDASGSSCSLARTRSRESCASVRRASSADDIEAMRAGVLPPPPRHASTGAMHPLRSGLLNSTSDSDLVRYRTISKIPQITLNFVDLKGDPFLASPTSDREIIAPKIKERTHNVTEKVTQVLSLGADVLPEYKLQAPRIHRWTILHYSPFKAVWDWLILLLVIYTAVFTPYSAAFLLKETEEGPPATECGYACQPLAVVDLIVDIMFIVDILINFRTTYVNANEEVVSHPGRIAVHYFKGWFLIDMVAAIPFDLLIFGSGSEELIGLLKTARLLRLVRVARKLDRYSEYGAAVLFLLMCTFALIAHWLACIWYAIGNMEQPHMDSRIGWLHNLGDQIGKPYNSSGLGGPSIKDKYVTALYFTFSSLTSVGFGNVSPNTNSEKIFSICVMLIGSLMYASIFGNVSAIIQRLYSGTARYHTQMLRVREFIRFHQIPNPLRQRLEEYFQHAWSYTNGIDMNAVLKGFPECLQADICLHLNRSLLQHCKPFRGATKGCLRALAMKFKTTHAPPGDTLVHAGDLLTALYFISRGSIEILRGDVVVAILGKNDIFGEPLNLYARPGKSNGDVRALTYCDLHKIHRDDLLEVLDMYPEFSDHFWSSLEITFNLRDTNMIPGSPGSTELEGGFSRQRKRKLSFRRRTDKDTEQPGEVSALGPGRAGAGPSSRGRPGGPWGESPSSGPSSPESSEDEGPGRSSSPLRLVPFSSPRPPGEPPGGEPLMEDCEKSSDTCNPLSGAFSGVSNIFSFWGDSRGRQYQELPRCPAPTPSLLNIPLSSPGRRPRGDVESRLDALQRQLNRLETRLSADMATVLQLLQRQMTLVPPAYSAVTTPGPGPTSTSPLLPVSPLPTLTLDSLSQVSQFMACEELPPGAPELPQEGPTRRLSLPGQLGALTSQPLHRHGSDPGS
Turning to `COc1ccc(CCCc2nnc(SCc3nc4ccccc4c(=O)[nH]3)n2C)cc1C`, the “hERG current change (%, negative = inhibition) at 1uM” value was -2.88%.

As for `O=C(Nc1ccncc1)Nc1ccc(Br)cc1Cl`, the “hERG current change (%, negative = inhibition) at 1uM” value is listed as 18.7%.

For `O=C(NC(=S)NC(c1ccccc1)c1ccncc1)c1ccccc1` (centres unmarked), the “hERG current change (%, negative = inhibition) at 1uM” value is on record as 7.67%.

In the case of `O=C(O)c1cccnc1SCC(=O)C12CC3CC(CC(C3)C1)C2`, the “hERG current change (%, negative = inhibition) at 1uM” value amounted to 4.38%.

`N#CCCN1CCN(Cn2c3ccccc3c3ccccc32)CC1`: the “hERG current change (%, negative = inhibition) at 1uM” value was determined as 8.13%.

For `COc1ccc(/C=N/N(C)C2=NS(=O)(=O)c3ccccc32)cc1OC`, the “hERG current change (%, negative = inhibition) at 1uM” value is on record as 10.8%.

Consider `CCSc1nnc(NC(=O)CSc2nc(CC)nc3c2c(=O)n(C)c(=O)n3C)s1`, for which the “hERG current change (%, negative = inhibition) at 1uM” value stood at 14.2%.

As for `COc1ccc(CNC(=O)CCSCc2cccc(F)c2)cc1`, the “hERG current change (%, negative = inhibition) at 1uM” value is given as 7.46%.

In the case of `CCCCNC(=S)N(C)/N=C/c1ccc(OCc2ccc(C(=O)OC)cc2)c(OC)c1`, the “hERG current change (%, negative = inhibition) at 1uM” value is recorded as 9.6%.

Turning to `Cc1ccccc1-n1ncc2c1CC(C)(C)CC2NC(=O)c1ccncc1` (centres unmarked), the “hERG current change (%, negative = inhibition) at 1uM” value is recorded as -7.67%.

On to `CCOc1ccc2[nH]c(=O)c(CN(CCOC)C(=O)N3CCOCC3)cc2c1`, for which the “hERG current change (%, negative = inhibition) at 1uM” value was 11.7%.

Take `CC(C)(C)OC(=O)NCCCCCNC(=O)c1nc[nH]c1C(=O)N1CCN(C(=O)OC(C)(C)C)CC1`: the “hERG current change (%, negative = inhibition) at 1uM” value came out at 13.7%.

Regarding `Cl.Cn1c(=O)c2c(nc(N3CCCCC3)n2CCNC2=NCCC2)n(C)c1=O`, the “hERG current change (%, negative = inhibition) at 1uM” value turned out to be 8.12%.

In the case of `Cc1cc(NC(=O)c2ccc(F)cc2)n(-c2ccccn2)n1`, the “hERG current change (%, negative = inhibition) at 1uM” value was determined as 7.33%.

With `CNNC(=S)Nc1cccc(C(F)(F)F)c1`, the “hERG current change (%, negative = inhibition) at 1uM” value was 11.7%.

Turning to `CC(C)(CO)NCC(O)COc1ccc2c(c1)CCC2` (centres unmarked), the “hERG current change (%, negative = inhibition) at 1uM” value stood at 10.6%.

Regarding `O=C1CC(N2CC=C(c3ccc(F)cc3)CC2)C(=O)N1c1ccc(F)cc1` (centres unmarked), the “hERG current change (%, negative = inhibition) at 1uM” value worked out at 5.54%.

In the case of `COC(=O)c1nc2n(n1)C(c1cc(OC)ccc1OC)C(C(=O)OC1CCCCC1)=C(C)N2` (centres unmarked), the “hERG current change (%, negative = inhibition) at 1uM” value is 6.83%.

For `O=C(c1sccc1Cl)N1CCN(Cc2ccc3c(c2)OCO3)CC1`, the “hERG current change (%, negative = inhibition) at 1uM” value is recorded as 0.364%.

Regarding `CN(Cc1ccco1)S(=O)(=O)c1nnc(NC(=O)c2ccccc2)s1`, the “hERG current change (%, negative = inhibition) at 1uM” value stood at 9.94%.

With `O=C(Nc1ccc2oc(-c3ccccc3)nc2c1)c1ccco1`, the “hERG current change (%, negative = inhibition) at 1uM” value is given as 7.32%.

Take `CC(C)CN(C(=O)COC(=O)c1ccc2c(c1)OCO2)c1c(N)n(Cc2ccccc2)c(=O)[nH]c1=O`: the “hERG current change (%, negative = inhibition) at 1uM” value amounted to 10.5%.

On to `CCOC(=O)C1=C(O)/C(=C\c2ccc(CNC(=O)C(=O)Nc3ccccc3)o2)N=C1C`, for which the “hERG current change (%, negative = inhibition) at 1uM” value is given as 12%.

Consider `COc1ccc(CCN(Cc2cc3cc(C)ccc3[nH]c2=O)C(C)=O)cc1OC`, for which the “hERG current change (%, negative = inhibition) at 1uM” value is reported as 8.74%.

For `Cc1ccc(OCC2Cn3c(nc4c3c(=O)[nH]c(=O)n4C)O2)cc1C` (centres unmarked), the “hERG current change (%, negative = inhibition) at 1uM” value turned out to be 9.89%.

With `O=C(CN1CCN(C(=O)c2ccco2)CC1)Nc1ccc(F)cc1F`, the “hERG current change (%, negative = inhibition) at 1uM” value is given as -18.1%.

As for `CCCc1ccccc1OCCNC(C)=O`, the “hERG current change (%, negative = inhibition) at 1uM” value was determined as 10.2%.

Consider `Cc1ccc(-c2nc(N)n(C(=O)c3ccco3)n2)cc1`, for which the “hERG current change (%, negative = inhibition) at 1uM” value is given as 5.44%.

`CC(=O)N(Cc1cc2ccccc2[nH]c1=O)c1ccc(C)cc1`: the “hERG current change (%, negative = inhibition) at 1uM” value is 9.38%.

For the compound `O=C(c1ccccc1)C1CCCN(Cc2nc(-c3cnccn3)no2)C1` (centres unmarked), the “hERG current change (%, negative = inhibition) at 1uM” value was found to be 17.9%.

In the case of `O=C(Oc1ccc(C(=S)N2CCOCC2)cc1)c1ccccc1F`, the “hERG current change (%, negative = inhibition) at 1uM” value is given as 4.58%.

As to `O=C(CSc1nnc(SCc2ccccc2)s1)N/N=C/c1ccc(Cl)cc1Cl`, the “hERG current change (%, negative = inhibition) at 1uM” value was found to be 5.33%.

`Cc1ccc(N(CC(=O)NCc2ccco2)C(=O)CCC(=O)Nc2ccccn2)cc1C`: the “hERG current change (%, negative = inhibition) at 1uM” value is on record as 9.73%.

`O=C(CN1C(=O)NC2(CCOc3ccccc32)C1=O)c1ccc(F)c(F)c1` (centres unmarked): the “hERG current change (%, negative = inhibition) at 1uM” value is listed as -8.01%.

Regarding `CCOC(=O)C(O)(c1ccc(N=Cc2ccccc2O)c(C)c1)C(F)(F)F` (centres unmarked), the “hERG current change (%, negative = inhibition) at 1uM” value is given as 11.3%.

Consider `COc1ccc(Cl)cc1NC(=O)C(C)N1CCN(C/C=C/c2ccccc2)CC1.O=C(O)C(=O)O` (centres unmarked), for which the “hERG current change (%, negative = inhibition) at 1uM” value is -14.3%.

Turning to `Cc1cccc(C(=O)O/N=C2\CCS(=O)(=O)c3sccc32)c1`, the “hERG current change (%, negative = inhibition) at 1uM” value was found to be 13.4%.

As for `Cc1ccc(O)c(NC(=O)c2noc3c2CCCCC3)c1`, the “hERG current change (%, negative = inhibition) at 1uM” value was 11.3%.

Consider `Cc1cccc(NC(=O)N2CC3CC(C2)c2cccc(=O)n2C3)c1` (centres unmarked), for which the “hERG current change (%, negative = inhibition) at 1uM” value worked out at 14.4%.

For the compound `O=C(Nc1nc2c(ccc3ccccc32)s1)c1cc([N+](=O)[O-])ccc1N1CCOCC1`, the “hERG current change (%, negative = inhibition) at 1uM” value was determined as 15.1%.

Turning to `CCOC(=O)N1CCN(CCC(=O)Nc2ccc(OC(F)(F)F)cc2)CC1`, the “hERG current change (%, negative = inhibition) at 1uM” value is recorded as -31.4%.

`COc1ccc(-c2cc(-c3nnc(COC(=O)c4ccc(O)cc4)o3)c3ccccc3n2)cc1OC`: the “hERG current change (%, negative = inhibition) at 1uM” value was found to be 9.17%.

For `CCc1ccc(NC(=O)c2onc(C)c2Cl)cc1`, the “hERG current change (%, negative = inhibition) at 1uM” value is recorded as 12.3%.

For the compound `Cc1cc(C)c(OCC(=O)Nc2nnc(-c3ccco3)o2)c(C)c1`, the “hERG current change (%, negative = inhibition) at 1uM” value was determined as 4.23%.

Turning to `COC(=O)c1cc(C)sc1NC(=O)CN1CCN(C(=O)C2CCCO2)CC1` (centres unmarked), the “hERG current change (%, negative = inhibition) at 1uM” value was -11.3%.

As to `COc1ccc(S(=O)(=O)CCC(=O)NCCc2ccc(Cl)cc2)cc1`, the “hERG current change (%, negative = inhibition) at 1uM” value came to 14.5%.

Turning to `COc1ccc(N2CCN(Cc3oc(CO)cc(=O)c3O)CC2)cc1`, the “hERG current change (%, negative = inhibition) at 1uM” value came to 2.29%.

Take `O=C(O)CCCNC1=NCCC1`: the “hERG current change (%, negative = inhibition) at 1uM” value is 12.9%.

In the case of `c1ccc2c(c1)C(=Nn1cnnc1)c1ccccc1-2`, the “hERG current change (%, negative = inhibition) at 1uM” value was 20.2%.

As to `O=C(O)Cn1cc(C(=O)C2CC2)c2ccccc21`, the “hERG current change (%, negative = inhibition) at 1uM” value is given as 11.9%.

Take `CCOc1ncccc1C(=O)OCC(=O)NCCc1ccc(S(N)(=O)=O)cc1`: the “hERG current change (%, negative = inhibition) at 1uM” value is 4.03%.

On to `CC1CC(C)CN(C(=O)CSc2ncnc3sccc23)C1` (centres unmarked), for which the “hERG current change (%, negative = inhibition) at 1uM” value is recorded as 16.1%.

Regarding `COC(=O)[C@H]1C[C@@H]1[C@H](NS(=O)(=O)c1ccccc1)c1ccccc1`, the “hERG current change (%, negative = inhibition) at 1uM” value is reported as 9.44%.

As to `O=[N+]([O-])c1cccc(-n2nnnc2CNCc2ccccc2)c1`, the “hERG current change (%, negative = inhibition) at 1uM” value was found to be 3.04%.

For the compound `COc1ccccc1CNC(=O)CCCNC(=O)c1ccc(Cl)cc1`, the “hERG current change (%, negative = inhibition) at 1uM” value came out at 20%.

On to `COc1cccc(NC(=O)C2CCCN(S(=O)(=O)c3cccc4nonc34)C2)c1` (centres unmarked), for which the “hERG current change (%, negative = inhibition) at 1uM” value was 11.8%.
